Data as given in a collection of fitness landscapes (doi:10.1016/j.celrep.2020.107928).
In all, about 81,000 sequences were measured (“one-hybrid fitness for binding NBS DNA”: median about -0.1, highest 2% from about 0.36 on). The list shows a part of the results.

B1: Caulobacter ParB omega fusion; a variant is named by its letters at X, in order, B8GW30 (parent)
chain: MESVVVGEPGMSEGRRGLGRGLSALLGEVDAAPAQAPGEQLGGSREAPIEILQRNPDQPRRTFREEDLEDLSNSIREKGVLQPILVRPSPDTAGEYQIVAGERAWRAAQRAGLKTVPIMVRELDDLAVLEIGIIENVQRADLNVLEEALSYKVLMEKFERTQENIAQTIGKSXSHVANXMRLLXLPDEVQSYLVSGELTAXHARAIAAAADPVALAKQIIEGGLSVRETEALARKAPNLSAGKSKGGRPPRVKDTDTQALESDLSSVLGLDVSIDHRGSTGTLTITYATLEQLDDLCNRLTRGI

Variants of: B1
Assay: one-hybrid fitness for binding NBS DNA (the Noc-binding site; scaled: cognate 1, non-cognate 0); higher = stronger binding
Conditions: with NBS DNA site
Method in brief: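 In E. coli USO, a HIS3 reporter with its site placed 19 bp from the promoter was used to select Caulobacter ParB variants randomised at four specificity codons. Growth lasted 48 hours at 37°C on histidine-free M9 containing 0.1 mM IPTG and 5 mM 3-AT. Fitness was taken as the log change in variant-to-wild-type read ratio from Illumina sequencing of pre- and post-selection plasmids, rescaled between the non-cognate and cognate sites.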

| Variant | one-hybrid fitness for binding NBS DNA |
| --- | --- |
| NAHR | ≤ 0.2 |
| LHSK | ≤ 0.2 |
| IHPM | ≤ 0.2 |
| GIST | ≤ 0.2 |
| CIMS | ≤ 0.2 |
| ELEF | ≤ 0.2 |
| LKKA | ≤ 0.2 |
| EAPQ | ≤ 0.2 |
| HTNP | ≤ 0.2 |
| QIML | ≤ 0.2 |
| VEMW | ≤ 0.2 |
| AYTG | ≤ 0.2 |
| GSAK | ≤ 0.2 |
| PQAL | ≤ 0.2 |
| TDWR | ≤ 0.2 |
| VDSV | ≤ 0.2 |
| LTWW | ≤ 0.2 |
| SKYT | ≤ 0.2 |
| MRLS | ≤ 0.2 |
| CLPD | ≤ 0.2 |
| RLNE | ≤ 0.2 |
| GICG | ≤ 0.2 |
| PNEC | ≤ 0.2 |
| TFHD | ≤ 0.2 |
| QDTY | ≤ 0.2 |
| LHDW | ≤ 0.2 |

| Variant | one-hybrid fitness for binding NBS DNA |
| --- | --- |
| TYPV | ≤ 0.2 |
| TMWR | ≤ 0.2 |
| CLIS | ≤ 0.2 |
| TRIN | ≤ 0.2 |
| PTAG | ≤ 0.2 |
| LWPH | ≤ 0.2 |
| DKCH | ≤ 0.2 |
| EASL | ≤ 0.2 |
| LPGD | ≤ 0.2 |
| RPVN | ≤ 0.2 |
| PTFG | ≤ 0.2 |
| YDSM | ≤ 0.2 |
| IMLG | ≤ 0.2 |
| VRCV | ≤ 0.2 |
| RCRD | ≤ 0.2 |
| KETH | ≤ 0.2 |
| DQTR | ≤ 0.2 |
| FNWS | ≤ 0.2 |
| CKNS | ≤ 0.2 |
| MLEG | ≤ 0.2 |
| GVTI | ≤ 0.2 |
| VVPM | ≤ 0.2 |
| RDTH | ≤ 0.2 |
| PERT | ≤ 0.2 |
| LHPK | ≤ 0.2 |
| RCGA | 0.259 |

| Variant | one-hybrid fitness for binding NBS DNA |
| --- | --- |
| KDLT | ≤ 0.2 |
| VCNI | ≤ 0.2 |
| RYTY | ≤ 0.2 |
| EARF | ≤ 0.2 |
| LTQS | ≤ 0.2 |
| KMIS | ≤ 0.2 |
| MTSK | ≤ 0.2 |
| NNCK | ≤ 0.2 |
| PVEG | ≤ 0.2 |
| ARDL | ≤ 0.2 |
| MAPG | ≤ 0.2 |
| LQEN | ≤ 0.2 |
| TGSF | ≤ 0.2 |
| LLRR | ≤ 0.2 |
| SVTI | ≤ 0.2 |
| ILLW | ≤ 0.2 |
| QNPA | ≤ 0.2 |
| TYTR | ≤ 0.2 |
| HSAD | ≤ 0.2 |
| LHHF | ≤ 0.2 |
| RVHE | ≤ 0.2 |
| TYTD | ≤ 0.2 |
| SHIA | ≤ 0.2 |
| ERDT | ≤ 0.2 |
| QFCC | ≤ 0.2 |
| DLPC | ≤ 0.2 |

| Variant | one-hybrid fitness for binding NBS DNA |
| --- | --- |
| GHRE | ≤ 0.2 |
| YDKS | ≤ 0.2 |
| GTCG | ≤ 0.2 |
| LCGW | ≤ 0.2 |
| GMQT | ≤ 0.2 |
| RKRY | 0.366 |
| IHDP | ≤ 0.2 |
| ELVC | ≤ 0.2 |
| STRI | ≤ 0.2 |
| ARLV | ≤ 0.2 |
| RFWA | ≤ 0.2 |
| AMLT | ≤ 0.2 |
| SAQV | ≤ 0.2 |
| LVGI | ≤ 0.2 |
| PSCF | ≤ 0.2 |
| QNQG | ≤ 0.2 |
| MAQE | ≤ 0.2 |
| EALI | ≤ 0.2 |
| ECVT | ≤ 0.2 |
| RELF | ≤ 0.2 |
| DRLN | ≤ 0.2 |
| MLHC | ≤ 0.2 |
| YPKT | ≤ 0.2 |
| DVTK | ≤ 0.2 |
| PCRD | ≤ 0.2 |
| KWKG | ≤ 0.2 |

| Variant | one-hybrid fitness for binding NBS DNA |
| --- | --- |
| KQHL | ≤ 0.2 |
| RNFF | ≤ 0.2 |
| CYKT | ≤ 0.2 |
| HAAH | ≤ 0.2 |
| PVCF | ≤ 0.2 |
| GHLE | ≤ 0.2 |
| PNAW | ≤ 0.2 |
| MCPT | ≤ 0.2 |
| NDPL | ≤ 0.2 |
| NFTF | ≤ 0.2 |
| IEPH | ≤ 0.2 |
| CAEW | ≤ 0.2 |
| TVGF | ≤ 0.2 |
| ACKY | ≤ 0.2 |
| GVRY | ≤ 0.2 |
| HTLE | ≤ 0.2 |
| DMSR | ≤ 0.2 |
| SAFG | ≤ 0.2 |
| SSRD | ≤ 0.2 |
| AAIG | ≤ 0.2 |
| EDNP | ≤ 0.2 |
| AHYV | ≤ 0.2 |
| THWG | ≤ 0.2 |
| RRRQ | 0.401 |
| YHLA | ≤ 0.2 |
| LADC | ≤ 0.2 |

| Variant | one-hybrid fitness for binding NBS DNA |
| --- | --- |
| PSNF | ≤ 0.2 |
| QSWQ | ≤ 0.2 |
| YHGR | ≤ 0.2 |
| WKRV | ≤ 0.2 |
| HCRL | ≤ 0.2 |
| RSVW | ≤ 0.2 |
| DRCY | ≤ 0.2 |
| QART | 0.716 |
| ADMT | ≤ 0.2 |
| RYSQ | ≤ 0.2 |
| SFPS | ≤ 0.2 |
| YRRR | 0.325 |
| LTIQ | ≤ 0.2 |
| SHVW | ≤ 0.2 |
| MALI | ≤ 0.2 |
| TVVF | ≤ 0.2 |
| IDGT | ≤ 0.2 |
| PMET | ≤ 0.2 |
| DPKP | ≤ 0.2 |
| LCDF | ≤ 0.2 |
| TLTC | ≤ 0.2 |
| TTRT | ≤ 0.2 |
| LTHL | ≤ 0.2 |
